Test results taken from PubChem BioAssay (Tox21).
Inconclusive means that the source gave no clear call. Such entries were picked first, then a sample of the others. For part of these data: Potencies beside an inconclusive call are fits to weak or partial responses and may not hold up. Calls of active or inactive are those of the source. Unless noted, the call rests on the fitted dose curve; in most records, active means well fitted curve in the direction sought with a large enough effect in the repeat runs; inconclusive means weak or mixed curves; inactive means no such curve, though single readings can be large; an effect the other way counts as inactive or inconclusive.

Key:
[1] = biological target: Nuclear receptor subfamily 1 group I member 3 (Homo sapiens) (UniProt Q14994); experiment: qHTS assay to identify small molecule agonists of the constitutive androstane receptor (CAR) signaling pathway (AID 1224839); further: potency means the concentration at half of the fitted maximal effect; nearly all actives have a fitted effect of over 15% in size
Sequence of UniProt Q14994 (Q14994 whole entry, looked up): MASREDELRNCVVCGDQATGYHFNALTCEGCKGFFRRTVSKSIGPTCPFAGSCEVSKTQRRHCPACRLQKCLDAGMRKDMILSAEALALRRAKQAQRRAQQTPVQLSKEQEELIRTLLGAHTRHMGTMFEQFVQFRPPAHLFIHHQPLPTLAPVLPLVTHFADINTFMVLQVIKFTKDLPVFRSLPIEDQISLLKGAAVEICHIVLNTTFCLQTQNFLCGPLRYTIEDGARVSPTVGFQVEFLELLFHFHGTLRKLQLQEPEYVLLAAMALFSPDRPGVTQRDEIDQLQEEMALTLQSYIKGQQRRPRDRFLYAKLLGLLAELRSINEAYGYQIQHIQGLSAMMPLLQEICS
Outline: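 A 15-concentration quantitative screen uses HepG2 cells co-transfected stably with human CAR and CYP2B6-2.2kb reporter. Treatment lasts 24 h with 0.75 uM PK11195 final present; ONE-Glo luminescence is the signal.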

[2] = qHTS assay to identify small molecule agonists of the hypoxia (HIF-1) signaling pathway - cell viability counter screen (AID 1224844; calls by dose curve; further: on the % scale 0 is the no-effect control and ±100 the full control effect; nearly all actives have a fitted effect of over 50% in size)
Outline: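 In this counter screen, HRE-bla ME-180 cell viability after 17 hrs of compound exposure at 37C was read by CellTiter-Glo luminescence, multiplexed with the beta-lactamase reporter measurement.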

[3] = qHTS assay to identify small molecule agonists of H2AX (AID 1224845; active means well fitted activation curve with a large enough effect in the signal ratio in the repeat runs, not every such curve was filed as active; inconclusive means weak or mixed curves; the % refers to the signal ratio; further: potency means the concentration at half of the fitted maximal effect); conditions: CHO-K1 phospho-H2AX Ser139 HTRF, 3 h; activation (H2AX phosphorylation): at 154 µM (top of the series) unless noted
Outline: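 Phospho-H2AX Ser139 measured by HTRF (ex 320 nm; em 665 and 620 nm) after 24 hr antibody incubation. Compounds, 15 concentrations, 0.76% DMSO, were applied to CHO-K1 cells for 3hr at 37C before lysis.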

[4] = A CellTox Green Cytotoxicity Assay to monitor cytotoxicity in HepG2 cells - 8 hour (AID 1224890); further: on the % scale 0 is the no-effect control and ±100 the full control effect; nearly all actives have a fitted effect of over 45% in size
Outline: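 Cytotoxicity was tracked as dead-cell DNA fluorescence in HepG2 cells treated with test compounds at 37 C; each time-point value comes from one kinetic series spanning 0, 8, 16, 24, 32 and 40 h.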

[5] = qHTS assay to identify small molecule HDAC inhibitors (AID 1259364);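 further: wild-type HCT-116 cells with endogenous class I/II HDAC activity; potency means the concentration at half of the fitted maximal effect; nearly all actives have a fitted effect of over 45% in size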
Outline: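 HCT-116 wt cells, 1,500/well, overnight attach. Compounds (DMSO) 2 h, 37 °C. HDAC-Glo I/II, 30 min RT. Luminescence.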

[6] = biological target: Estrogen receptor beta (Homo sapiens) (UniProt Q92731); experiment: qHTS assay to identify small molecule agonists of the estrogen receptor beta (ER-beta) signaling pathway (AID 1259377; active means well fitted activation curve with a large enough effect in the signal ratio in the repeat runs, not every such curve was filed as active; inconclusive means weak or mixed curves, or effect the other way; the % refers to the signal ratio; further: potency means the concentration at half of the fitted maximal effect); conditions: ER-beta-UAS-bla HEK293T, beta-lactamase FRET ratio, 16 h; activation: at 92.4 µM (top of the series) unless noted
Sequence of UniProt Q92731 (Q92731 whole entry, looked up): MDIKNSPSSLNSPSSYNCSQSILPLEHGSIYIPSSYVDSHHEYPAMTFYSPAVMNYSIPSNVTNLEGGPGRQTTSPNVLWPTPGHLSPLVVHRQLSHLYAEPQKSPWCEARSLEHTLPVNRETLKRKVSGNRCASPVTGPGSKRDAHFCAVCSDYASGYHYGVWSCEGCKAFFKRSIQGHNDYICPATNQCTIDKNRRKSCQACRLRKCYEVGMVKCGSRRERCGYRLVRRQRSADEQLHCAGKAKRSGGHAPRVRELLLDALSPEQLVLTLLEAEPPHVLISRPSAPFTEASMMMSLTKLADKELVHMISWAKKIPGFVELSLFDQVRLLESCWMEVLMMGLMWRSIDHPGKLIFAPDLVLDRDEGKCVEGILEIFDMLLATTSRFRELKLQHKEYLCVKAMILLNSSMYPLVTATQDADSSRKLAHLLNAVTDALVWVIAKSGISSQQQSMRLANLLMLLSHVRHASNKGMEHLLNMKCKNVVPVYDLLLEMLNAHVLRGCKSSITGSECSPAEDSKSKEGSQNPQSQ
Outline: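 A UAS-controlled beta-lactamase reporter in ER-beta-UAS-bla HEK293T cells reports receptor activation. Compounds act for 16 hr at 37C in 2% charcoal-stripped serum, and a FRET substrate is read by fluorescence after 2 hours.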

[7] = biological target: Estrogen receptor beta (Homo sapiens) (UniProt Q92731); experiment: qHTS assay to identify small molecule antagonists of the estrogen receptor beta (ER-beta) signaling pathway (AID 1259378; active means well fitted inhibition curve with a large enough effect in the signal ratio in the repeat runs, not every such curve was filed as active; inconclusive means weak or mixed curves, or effect the other way; inactive means no such curve, though single readings can be large or run the other way; the % refers to the signal ratio; further: on the % scale 0 is the no-effect control and ±100 the full control effect); conditions: ER-beta-UAS-bla HEK293T, beta-lactamase FRET ratio, 16 h; activity, negative = inhibition: at 92.4 µM (top of the series) unless noted
Outline: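 Antagonist mode: compounds added to beta-lactamase reporter HEK293T ER-beta-UAS cells stimulated with E2 (1nM final), 16 hr at 37C. LiveBLAzer B/G FRET substrate, 2 hours room temperature, fluorescence read-out.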

[8] = qHTS assay to identify small molecule agonists of the estrogen receptor beta (ER-beta) signaling pathway - cell viability counter screen (AID 1259380); further: potency means the concentration at half of the fitted maximal effect; nearly all actives have a fitted effect of over 30% in size
Outline: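 Compounds dissolved in DMSO were pin-transferred onto ER-beta-UAS-bla HEK293T cells that had settled 6 hr, and exposure ran 16 hr at 37C. Following the reporter read, CellTiter-Glo luminescence after 30 min at room temperature indicated cytotoxicity.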

[9] = qHTS assay to identify small molecule antagonists of the estrogen receptor beta (ER-beta) signaling pathway - cell viability counter screen (AID 1259382); further: potency means the concentration at half of the fitted maximal effect; nearly all actives have a fitted effect of over 55% in size
Outline: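 CellTiter-Glo ATP luminescence measured after the LiveBLAzer read in the same wells; ER-beta-UAS-bla HEK293T cells, 16 hr compound treatment with 1nM 17-beta-estradiol agonist at 37C, 5% CO2.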

[10] = biological target: Thyrotropin receptor (Homo sapiens) (UniProt P16473); experiment: qHTS assay to identify small molecule antagonists of the thyroid stimulating hormone receptor (TSHR) signaling pathway (AID 1259385; calls by dose curve; further: potency means the concentration at half of the fitted maximal effect; nearly all actives have a fitted effect of over 20% in size); conditions: TSHR-HEK293 cAMP HTRF, TSH-stimulated antagonist mode; activity change, negative = inhibition: at 92.4 µM (top of the series) unless noted
Sequence of UniProt P16473 (P16473 whole entry, looked up): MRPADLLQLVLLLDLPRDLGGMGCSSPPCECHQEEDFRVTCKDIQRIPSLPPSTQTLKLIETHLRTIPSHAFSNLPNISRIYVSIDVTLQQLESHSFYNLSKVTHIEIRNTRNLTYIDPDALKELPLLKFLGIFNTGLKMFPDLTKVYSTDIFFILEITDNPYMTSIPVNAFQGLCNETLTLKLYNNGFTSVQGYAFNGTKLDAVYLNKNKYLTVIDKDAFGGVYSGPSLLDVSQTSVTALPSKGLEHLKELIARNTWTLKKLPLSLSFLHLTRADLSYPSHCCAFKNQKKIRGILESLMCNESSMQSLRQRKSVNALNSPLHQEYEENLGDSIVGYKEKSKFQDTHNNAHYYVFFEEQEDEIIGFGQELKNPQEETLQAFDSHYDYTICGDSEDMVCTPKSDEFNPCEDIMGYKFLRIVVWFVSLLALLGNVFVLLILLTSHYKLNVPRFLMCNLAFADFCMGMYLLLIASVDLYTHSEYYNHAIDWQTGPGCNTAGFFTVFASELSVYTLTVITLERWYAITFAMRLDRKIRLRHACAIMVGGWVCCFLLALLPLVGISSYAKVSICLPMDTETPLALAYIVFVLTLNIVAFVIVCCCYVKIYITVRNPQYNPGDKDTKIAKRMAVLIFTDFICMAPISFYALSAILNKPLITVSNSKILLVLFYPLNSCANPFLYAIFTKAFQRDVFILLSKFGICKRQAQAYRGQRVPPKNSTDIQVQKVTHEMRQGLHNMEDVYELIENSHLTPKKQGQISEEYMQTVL
Outline: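 Antagonist mode: compound-treated TSHR-expressing HEK293 cells were stimulated with 1.5 ng/mL TSH (final) in presence of Ro20-1724 for 30 min at RT. HTRF cAMP detection after 1 h; each compound tested at 15 concentrations, triplicate.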

[11] = qHTS assay to identify small molecule agonists of the progesterone receptor (PR) signaling pathway - cell viability counter screen (AID 1346799; calls by dose curve; further: on the % scale 0 is the no-effect control and ±100 the full control effect; nearly all actives have a fitted effect of over 45% in size)
Outline: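 Counter screen for cytotoxicity: compound-treated PR-UAS-bla HEK293T cells (16 hr, 37C, 5% CO2) were assayed with CellTiter-Glo, luminescence measured after 30 min at room temperature.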

[12] = qHTS assay to identify small molecule antagonists of the TGF-beta/Smad signaling pathway - cell viability counter screen (AID 1346824); further: potency means the concentration at half of the fitted maximal effect; nearly all actives have a fitted effect of over 50% in size
Outline: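 Cytotoxicity counter-screen run in the same wells as the beta-lactamase Smad reporter read: CellTiter-Glo luminescence after 30 min at room temperature. HEK 293T SBE-bla cells had 5 hr compound exposure at 37 C with TGF-beta1 (0.25 ng/mL stock).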

[13] = qHTS assay to identify small molecule antagonists of the TGF-beta/Smad signaling pathway (AID 1346924; active means well fitted inhibition curve with a large enough effect in the signal ratio in the repeat runs, not every such curve was filed as active; inconclusive means weak or mixed curves; the % refers to the signal ratio); conditions: SBE-bla HEK293T, TGF-beta/Smad reporter, beta-lactamase ratio; activity, negative = inhibition: at 76.8 µM (top of the series) unless noted
Outline: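 Read-out was FRET-substrate fluorescence (405 nm excitation; 460 and 530 nm emission) after 2 h at room temperature. Before that, cells carrying a Smad-binding-element beta-lactamase reporter in HEK 293T had been stimulated 5 h at 37 C with TGF-beta1 (0.25 ng/mL addition solution) in the presence of test compound.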

[14] = biological target: Nuclear receptor subfamily 1 group I member 2 (Homo sapiens) (UniProt O75469); experiment: Human pregnane X receptor (PXR) small molecule agonists, qHTS assay (AID 1346982); further: potency means the concentration at half of the fitted maximal effect; nearly all actives have a fitted effect of over 35% in size
Sequence of UniProt O75469 (O75469 whole entry, looked up): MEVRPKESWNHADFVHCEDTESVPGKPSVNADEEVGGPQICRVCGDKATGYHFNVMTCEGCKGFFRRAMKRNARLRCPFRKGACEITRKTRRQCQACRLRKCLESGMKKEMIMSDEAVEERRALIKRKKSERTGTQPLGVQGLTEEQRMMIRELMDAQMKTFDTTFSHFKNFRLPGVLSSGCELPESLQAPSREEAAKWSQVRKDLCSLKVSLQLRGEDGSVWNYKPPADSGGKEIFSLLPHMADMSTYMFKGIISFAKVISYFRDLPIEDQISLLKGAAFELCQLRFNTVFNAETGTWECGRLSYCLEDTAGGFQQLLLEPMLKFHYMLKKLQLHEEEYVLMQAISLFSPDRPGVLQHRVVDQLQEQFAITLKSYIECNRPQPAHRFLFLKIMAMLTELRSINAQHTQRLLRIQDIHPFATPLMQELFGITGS
Outline: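 Tox21 qHTS; PXR-Luc HepG2; compounds pinned from DMSO; 24 hr, 37 C; ONE-Glo luciferase detection, 30 min room temperature.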

[15] = biological target: Cytochrome P450 1A2 (Homo sapiens) (UniProt P05177); experiment: Cytochrome P450 Family 1 Subfamily A Member 2 (CYP1A2) small molecule antagonists: luciferase reporter qHTS assay (AID 1671199); further: potency means the concentration at half of the fitted maximal effect; nearly all actives have a fitted effect of over 50% in size
Sequence of UniProt P05177 (P05177 whole entry, looked up): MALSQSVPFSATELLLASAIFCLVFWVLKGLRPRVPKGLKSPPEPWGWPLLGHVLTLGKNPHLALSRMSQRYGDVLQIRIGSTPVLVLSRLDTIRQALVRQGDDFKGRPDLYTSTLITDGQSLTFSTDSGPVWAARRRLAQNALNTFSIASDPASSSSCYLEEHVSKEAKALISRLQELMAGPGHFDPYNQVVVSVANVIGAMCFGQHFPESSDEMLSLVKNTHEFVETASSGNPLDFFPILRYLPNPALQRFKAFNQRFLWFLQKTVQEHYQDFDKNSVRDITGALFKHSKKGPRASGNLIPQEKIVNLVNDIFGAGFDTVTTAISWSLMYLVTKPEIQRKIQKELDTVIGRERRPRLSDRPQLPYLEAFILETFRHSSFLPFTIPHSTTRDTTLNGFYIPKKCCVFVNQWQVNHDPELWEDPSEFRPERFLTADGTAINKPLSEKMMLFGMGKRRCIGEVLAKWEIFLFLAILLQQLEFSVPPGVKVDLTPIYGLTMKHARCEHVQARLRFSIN
Outline: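 Room-temperature CYP1A2 reaction with proluciferin substrate: compounds added from DMSO, 10 min preincubation, NADPH regeneration for 1 h. Luciferin detection reagent then added; luminescence recorded as RLU.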
Tags describe the fitted curve by direction and shape or compound fluorescence and quenching.

CC1(CO)CN(c2ccccc2)NC1=O (stereo not given)
inactive: Potency [2] | Potency [4] | Potency [11]
inconclusive: Potency [1] 61.1 µM [activator] | Potency [3] 20.1 µM [falling, partial curve, poor fit] | Potency [6] 24.3 µM [rising, full curve] | activity, negative = inhibition [7] -26.1% | Potency [8] 27.3 µM [cytotoxic, partial curve] | Potency [9] 54.5 µM [cytotoxic, partial curve, poor fit] | Potency [10] 77 µM [falling, partial curve, poor fit] | Potency [12] 0.49 µM [cytotoxic, single point] | activity, negative = inhibition [13] -2.61%
active: Potency [5] 24.3 µM | Potency [14] 61.1 µM | Potency [15] 35.6 µM
